Source: PubChem BioAssay AID504706 (National Center for Advancing Translational Sciences (NCATS), 2011)
Hit rate of the full screen: of about 320,000 compounds, about 200 (0.062%) were called active. This list was built around the results that the source calls inconclusive (neither active nor inactive); the mix of calls is not that of the screen. Calls come from the whole dose curve; as a rule, active = well fitted activation curve with a large enough effect; inconclusive = small, poorly fitted or top-dose-only effect; inactive = no such curve, though single readings can be large or run the other way. No potency is given beside an inconclusive call; the fits are too rough.

assay: qHTS assay for re-activators of p53 using a Luc reporter; settings: H1299 p53-A138V BP100-luciferase reporter, luminescence, 24 h; series mostly up to 92.2 µM; activity change, positive = activation: at the top concentration; note: nearly all actives have a fitted effect of over 45% in size; for activity change, positive = activation: % of control where 0% means no effect
Summary of the method: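 p53-null H1299 cells stably carrying temperature-sensitive p53-A138V and a BP100-luciferase reporter were pinned with compounds (4-point, 1:5 series) and held 24 hrs at 37 deg C. Luminescence was read 10 min after detection reagent.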
Potency is the fitted concentration of half-maximal effect; tags give direction and shape of the fitted curve.

| SMILES | Potency | activity change, positive = activation |
| --- | --- | --- |
| CCOC(=O)C1CCCN(CCC(=O)Nc2ccc(Br)cc2)C1 (stereo not given) | inconclusive [activator, single point] | – |
| Cc1sc(NC(=O)Cc2ccc3c(c2)OCO3)nc1-c1ccc2c(c1)CCN2C(=O)c1ccccc1F | inconclusive [activator, partial curve, poor fit] | – |
| Cc1ccccc1Nc1nnc(SCC(=O)c2c(N)n(C)c(=O)n(C)c2=O)s1 | – | inactive: -4.25% |
| CCCCCCC1C(C#N)=C(N)OC2=C1C(=O)CCC2 (stereo not given) | – | inactive: -7.33% |
| O=C(O)c1cc(NC(=O)C2CCCO2)cc(C(=O)O)c1 (stereo not given) | inconclusive [activator, single point] | – |
| COc1cc(OC)cc(C(=O)N[C@H](C(=O)NCCc2c[nH]c3ccccc23)C(C)C)c1 | – | inactive: 0.578% |
| Cc1ccc(/C=N/c2sc3c(c2C#N)CCC3)s1 | inconclusive [activator, full curve, poor fit] | – |
| CC(C)COc1ccc(CNC(=S)Nc2ccccc2)cc1Cl | – | inactive: 7.27% |
| Nc1nc2ccc(O)cc2s1 | inconclusive [activator, partial curve, poor fit] | – |
| Cc1ccc(-c2nnc(SCc3ccccc3F)o2)cc1 | inconclusive [activator, full curve, poor fit] | – |
| COc1ccc(-c2nn(-c3ccccc3)cc2/C=N/NC(=O)c2cccc(S(=O)(=O)Nc3ccccc3Cl)c2)cc1 | inconclusive [activator, full curve, poor fit] | – |
| COc1cc(C(=O)Oc2ccccc2/C=N/NC(=O)c2ccc(Cl)cc2)cc(OC)c1OC | inconclusive [activator, partial curve, poor fit] | – |
| O=C(CCNC(=O)c1ccco1)NCCN1C(=O)S/C(=C\c2ccc(F)cc2)C1=O | inconclusive [activator, single point] | – |
| CCc1ccc2c(c1)C1(NN=C(c3ccc(C)cc3)S1)C(=O)N2 (stereo not given) | inconclusive [activator, single point] | – |
| O=C(Nc1ccccc1)Nc1ccc2ccccc2c1 | – | inactive: 9.71% |
| CCSc1nnc(NC(=O)c2ccc(Br)s2)s1 | inconclusive [activator, single point] | – |
| O=C(NNc1nc2ccccc2s1)c1ccc(F)cc1 | inconclusive [activator, partial curve, poor fit] | – |
| O=C(COc1cccc(NC(=O)c2ccco2)c1)c1ccccc1 | inconclusive [activator, single point] | – |
| COCCCNC(=O)c1ccc([N+](=O)[O-])cc1 | – | inactive: 8.05% |
| O=c1[nH]c(-c2ccccn2)nc2ccccc12 | inconclusive [activator, full curve, poor fit] | – |
| CCc1ccc2c(c1)C1(NN=C(c3cccc4ccccc34)S1)C(=O)N2 (stereo not given) | inconclusive [activator, single point] | – |
| COc1cccc(OC)c1C(=O)Nc1cccc(-c2ccc(N3CCOCC3)nn2)c1 | inconclusive [activator, full curve, poor fit] | – |

| SMILES | Potency | activity change, positive = activation |
| --- | --- | --- |
| Cc1cccc(NC(=O)Cn2c(=O)n(CC3CCCO3)c(=O)c3ccccc32)c1 (stereo not given) | – | inactive: -8.58% |
| C/C(=N/NC(=O)c1ccccn1)c1ccco1 | – | inactive: 1.75% |
| O=C(OCC(=O)N1CCCc2ccccc21)c1ccccc1[N+](=O)[O-] | inconclusive [activator, partial curve, poor fit] | – |
| CCOc1ccc(C(=O)Nc2cccc(SC)c2)cc1 | inconclusive [activator, partial curve, poor fit] | – |
| Cc1cc(Cl)c2oc(C(=O)N(C)Cc3ccon3)c(C)c2c1 | inconclusive [activator, partial curve, poor fit] | – |
| Cc1ccc(S(=O)(=O)NC2CC2)cc1[N+](=O)[O-] | – | inactive: -0.442% |
| CC(=O)Oc1ccc(-c2csc(Nc3cccnc3)n2)cc1 | inconclusive [activator, partial curve, poor fit] | – |
| CCc1cc(C(=O)NNC(=S)Nc2cccc(C)c2)cs1 | inconclusive [activator, partial curve, poor fit] | – |
| Fc1ccc(Cn2cccc2C2=NC(c3ccccc3)CO2)cc1 (stereo not given) | inconclusive [activator, single point] | – |
| Cc1ccc(Nc2nc(N)c3ccccc3n2)cc1Cl | inconclusive [activator, partial curve, poor fit] | – |
| CSc1ccccc1OCc1cc(C(=O)N(C)Cc2ccncn2)no1 | inconclusive [activator, full curve] | – |
| O=C(O)c1cc(-c2ccc3c(c2)OCO3)nc2ccc(Cl)cc12 | inconclusive [activator, single point] | – |
| COc1ccccc1C(=O)Nc1cc2ccccc2oc1=O | – | inactive: 14.2% |
| CN(c1ccc(C(=O)NCCSC(C)(C)C)cc1)S(C)(=O)=O | inconclusive [activator, partial curve, poor fit] | – |
| COc1ccc(Nc2ncnc3sc(C)cc23)cc1 | inconclusive [activator, partial curve, poor fit] | – |
| CCn1c(-c2ccc(F)cc2)cnc1SCC(=O)N1CCc2ccccc21 | inconclusive [activator, full curve, poor fit] | – |
| O=C(CCC(=O)c1cccs1)c1cccs1 | inconclusive [activator, full curve, poor fit] | – |
| Cc1nc([N+](=O)[O-])nn1C12CC3CC(CC(Br)(C3)C1)C2 | inconclusive [activator, partial curve, poor fit] | – |
| O=C(Cc1ccccc1[N+](=O)[O-])N1CCN(c2ccc(F)cc2)CC1 | inconclusive [activator, single point] | – |
| COC(=O)c1ccc(CN2C(=O)NC(Cc3c[nH]c4ccccc34)C2=O)cc1 (stereo not given) | inconclusive [activator, partial curve, poor fit] | – |
| COC(=O)Cn1cnc2c(oc3ccccc32)c1=O | inconclusive [activator, partial curve, poor fit] | – |
| Oc1cccc2ccc(/C=C/c3cccs3)nc12 | inconclusive [activator, full curve, poor fit] | – |

| SMILES | Potency | activity change, positive = activation |
| --- | --- | --- |
| Cc1ccc(COC(=O)c2nn(-c3ccccc3)nc2N)cc1 | inconclusive [activator, single point] | – |
| O=C(NCC(c1cccnc1)N1CCN(c2ccc(F)cc2)CC1)OCc1ccccc1 (stereo not given) | – | inactive: 0.497% |
| CC(C)(C)C(=O)Nc1ccc(C(=O)Nc2cccc(Oc3ccc(C(=O)O)c(C(=O)O)c3)c2)cc1 | – | inactive: 0.93% |
| Nc1[nH]n(-c2ccccc2)c(=O)c1N=Nc1ccccc1 | inconclusive [activator, partial curve, poor fit] | – |
| COC(=O)C(CC(=O)c1ccccc1)CC(=O)c1ccccc1 | inconclusive [activator, full curve, poor fit] | – |
| CCOC(=O)c1ccc(NC(=O)c2ccccc2)cc1 | inconclusive [activator, partial curve, poor fit] | – |
| COc1cccc(OCCOc2cccc(/C=N/n3cnnc3)c2)c1 | inconclusive [activator, partial curve, poor fit] | – |
| Cn1cc(Cl)c(/C(N)=N/OC(=O)c2ccccc2C(F)(F)F)n1 | inconclusive [activator, partial curve, poor fit] | – |
| COc1ccc(C(CNC(=O)C2CC(=O)N(Cc3ccccc3)C2)N2CCCC2)cc1 (stereo not given) | inconclusive [activator, single point] | – |
| CN(Cc1ccccc1)C(=O)c1[nH]cnc1C(=O)Nc1cccc(Cl)c1 | inconclusive [activator, partial curve, poor fit] | – |
| COc1cc(NC(=S)NC(C)=O)ccc1NC(=O)C(C)C | inconclusive [activator, partial curve, poor fit] | – |
| O=C(CCSc1ccc(Cl)cc1)NC12CC3CC(CC(C3)C1)C2 | inconclusive [activator, single point] | – |
| O=C(OCc1nc2ccccc2s1)C1CCN(S(=O)(=O)c2cccs2)CC1 | inconclusive [activator, partial curve, poor fit] | – |
| O=C(O)c1ccc(COc2ccc([N+](=O)[O-])cc2)o1 | inconclusive [activator, partial curve, poor fit] | – |
| CC(C)c1ccc(S(=O)(=O)/N=C2/C=C(Sc3ncn[nH]3)C(=O)c3ccccc32)cc1 | – | inactive: -53.4% |
| Nc1c(C(=O)c2ccc(Br)s2)oc2ccccc12 | inconclusive [activator, full curve, poor fit] | – |
| CSCCC(NS(=O)(=O)c1ccc(Cl)cc1)C(=O)OCc1c(Cl)cccc1Cl (stereo not given) | inconclusive [activator, single point] | – |
| Cc1cccnc1Nc1nc(-c2ccc(O)c(O)c2)cs1 | inconclusive [activator, partial curve, poor fit] | – |
| Cc1cc(C)cc(C(=O)NC2CC(C)(C)NC(C)(C)C2)c1 | inconclusive [activator, single point] | – |
| O=C(c1cc2cc(F)ccc2[nH]1)N1CCc2ccccc21 | inconclusive [activator, full curve, poor fit] | – |
| COc1ccc(CC(=O)NC(=S)Nc2ccc(S(=O)(=O)NC(C)(C)C)cc2)cc1 | – | inactive: -2.82% |
